The list shows a part of the results. The list includes weakly bound sequences.

The experiment concerns the target MaxL homodimer (UniProt P61244). Description: universal protein-binding microarray (PBM). The settings on record: PBS-based mixture, 10 nM His-tagged protein dimer, 2% milk, 200 ng/uL BSA, 50 ng/uL salmon testes DNA, 0.02% TX-100; detection with Alexa 488 anti-His …; high values mean tight binding; most listed sequences are background and not binding sites; double strand, one strand shown.
Sequence of UniProt P61244 (P61244 whole entry): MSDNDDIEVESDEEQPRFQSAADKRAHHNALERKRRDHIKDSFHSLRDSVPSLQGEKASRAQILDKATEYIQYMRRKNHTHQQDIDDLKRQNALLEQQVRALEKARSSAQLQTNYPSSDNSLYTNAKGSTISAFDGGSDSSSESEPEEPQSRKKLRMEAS
Turning to GTTAATCA, the binding signal (normalized occupancy) came to 0.0763. The value for GCCTTCGC was 0.0729; that for CTGGTAGA was 0.0724; that for CTTGAAAC was 0.0698. For ACTCACCG, the binding signal (normalized occupancy) was determined as 0.0685.

In the case of CGTAAGAC, the binding signal (normalized occupancy) stood at 0.073. Regarding GCAGCGGC, the binding signal (normalized occupancy) is 0.0684. The value for GAAGTCAA was 0.0731; that for GTGTGAAA was 0.077.

With GAATCGAC, the binding signal (normalized occupancy) was 0.0734. Regarding TCCAGACA, the binding signal (normalized occupancy) was 0.0755. Regarding CGCCCCCC, the binding signal (normalized occupancy) was 0.0791. The value for CCCGGTAG was 0.0721. The value for CACTTCCA was 0.0744; that for ACGTGTGG was 0.104; that for AGGAGGTG was 0.0739. Regarding GGCGCCCA, the binding signal (normalized occupancy) amounted to 0.0683. On to GTCGGCTA, for which the binding signal (normalized occupancy) was determined as 0.0725. Consider GAAGTTCA, for which the binding signal (normalized occupancy) worked out at 0.0702. With ATTGTGTA, the binding signal (normalized occupancy) came out at 0.0795. The value for ATAGCTAA was 0.0709; that for CACGGAAC was 0.0765; that for AGATGACT was 0.0724. Regarding CGTTCGTC, the binding signal (normalized occupancy) was 0.0756.

For the sequence ACGAGCGT, the binding signal (normalized occupancy) was found to be 0.079. As for AGCGTAAT, the binding signal (normalized occupancy) is 0.0783. The value for GCCATCAC was 0.0781. The value for CGCTTACA was 0.0759. The value for ATGTAATA was 0.0877; that for GACTCGAC was 0.0716. For the sequence GGCTCACA, the binding signal (normalized occupancy) came to 0.0784. The value for CGCTGAGC was 0.0666; that for GAAGACCA was 0.0742; that for TAACCCAA was 0.0724. AGTGCTTC: the binding signal (normalized occupancy) came out at 0.071. In the case of AGTCTCCA, the binding signal (normalized occupancy) was found to be 0.0703.

As to ACACTGAC, the binding signal (normalized occupancy) was 0.0742. GAAATATA: the binding signal (normalized occupancy) was 0.0832. The value for AGAGCACA was 0.0745; that for AGTACCAA was 0.0697; that for GTGATCAA was 0.0762.

For CCGAGCAG, the binding signal (normalized occupancy) came to 0.0688. Consider CCGGAGGA, for which the binding signal (normalized occupancy) turned out to be 0.0682.

For AGTCAAAG, the binding signal (normalized occupancy) came out at 0.0683. On to GAGGCCTC, for which the binding signal (normalized occupancy) worked out at 0.066. The value for AATGGTCG was 0.0788. On to TCTTTAAA, for which the binding signal (normalized occupancy) is 0.0739. For CAGTGGCA, the binding signal (normalized occupancy) stood at 0.0709. With ACCCTCCG, the binding signal (normalized occupancy) is 0.0716. The value for AGACGATA was 0.0776; that for CATGTTTA was 0.0975. The value for CAGGATAG was 0.0808; that for ATGTACCG was 0.0773; that for TGCCGACA was 0.0708.

In the case of CCTTATGA, the binding signal (normalized occupancy) is 0.0858. On to CCGTATGC, for which the binding signal (normalized occupancy) came to 0.0775. The value for GCCTTTGA was 0.0737; that for CTACTCAA was 0.076. The value for TCCATCGA was 0.0807; that for CTAACAAG was 0.0763; that for CTAAACCA was 0.0714. As to GGATCACC, the binding signal (normalized occupancy) stood at 0.0774.

Take CCTTGTGA: the binding signal (normalized occupancy) turned out to be 0.0852. The value for AGCTACCA was 0.0774. The value for ATATCTTG was 0.0781. On to GTCTTCAA, for which the binding signal (normalized occupancy) worked out at 0.0773. On to AGCCCTAG, for which the binding signal (normalized occupancy) is 0.0726. The value for GACTTCAA was 0.0769; that for CAATCAAC was 0.0759; that for ATACAACG was 0.0812. The value for CCTGCATA was 0.0775; that for CAGACGTC was 0.0725; that for TCACTCAA was 0.0775.

As to AGAGGGAC, the binding signal (normalized occupancy) worked out at 0.0712.

As to ATGTCAAC, the binding signal (normalized occupancy) turned out to be 0.0806. As to ACGTACCA, the binding signal (normalized occupancy) was determined as 0.0845. As for ACGGCGAA, the binding signal (normalized occupancy) was determined as 0.0755. The value for AGAAATCA was 0.0761; that for CAACGTAG was 0.0762. The value for GCTCTAGA was 0.0703; that for CAGGGACG was 0.0724; that for GGTTTAAC was 0.07. For the sequence AATCTTGT, the binding signal (normalized occupancy) worked out at 0.0792.

For the sequence CCAACCTA, the binding signal (normalized occupancy) is 0.0696. For the sequence GCAGGTAA, the binding signal (normalized occupancy) is 0.0753.

As for CAACATCA, the binding signal (normalized occupancy) came out at 0.0834. For AAGCTGAC, the binding signal (normalized occupancy) worked out at 0.0676. With CGTCCCCA, the binding signal (normalized occupancy) worked out at 0.0757. As to GCCGTACA, the binding signal (normalized occupancy) stood at 0.0734. Take CTCATGCA: the binding signal (normalized occupancy) worked out at 0.0963.

With CCGACGCA, the binding signal (normalized occupancy) came out at 0.0724. The value for GTGCGCAA was 0.0723. The value for ATACATGG was 0.0876. The value for AAGGTCTA was 0.0766. On to GACAGCCC, for which the binding signal (normalized occupancy) was found to be 0.0721. The value for CCATCACA was 0.0836. As to CCTAATCA, the binding signal (normalized occupancy) came to 0.0795. Turning to AAACGTTA, the binding signal (normalized occupancy) is 0.0739. The value for AAAACATC was 0.0796; that for CAGAGACA was 0.0742; that for AAACAACT was 0.0717. The value for ATCTTCAT was 0.0785; that for GATCTAGA was 0.0744. GCCCTCAA: the binding signal (normalized occupancy) was 0.0742. Turning to GATCCTGA, the binding signal (normalized occupancy) turned out to be 0.0762. The value for TCAGAGCA was 0.075; that for ATGGCTTC was 0.0747.

Consider AACCGCCG, for which the binding signal (normalized occupancy) was 0.0663. The value for CGCAGGGA was 0.071; that for AAGAGGAT was 0.0795. The value for AATTCGGC was 0.0731.

With ATTTAATG, the binding signal (normalized occupancy) was 0.0804. The value for AAGAACTA was 0.0768; that for AGTCTGCA was 0.0717; that for CAGCGGCA was 0.077.

CTCCAGGC: the binding signal (normalized occupancy) turned out to be 0.0704. As for CCCCTATA, the binding signal (normalized occupancy) is 0.0838. The value for GCCCCGTA was 0.0763. The value for AGTCGCAT was 0.0785; that for AGAAGAAC was 0.076. The value for ACTTCGCT was 0.0657.

As to GTCTTATA, the binding signal (normalized occupancy) turned out to be 0.088. GGCATACA: the binding signal (normalized occupancy) was determined as 0.0776. The value for CCCGCGCC was 0.0733.

On to ACAGGGCT, for which the binding signal (normalized occupancy) is 0.0744. On to CGTCCATA, for which the binding signal (normalized occupancy) came out at 0.0783. For the sequence AACTATGC, the binding signal (normalized occupancy) was 0.0749. Take CGGTCCGA: the binding signal (normalized occupancy) was determined as 0.0679. Regarding CATGTCAC, the binding signal (normalized occupancy) was found to be 0.0932. The value for GGGGCGGA was 0.0751; that for AATCGACA was 0.0751. The value for AGTAGTCG was 0.0751; that for AGGTGTAA was 0.0858. As to GACCGCGC, the binding signal (normalized occupancy) was found to be 0.0751. The value for GATTCTAA was 0.0771; that for CAGCTGTC was 0.0716. The value for CACGGGTC was 0.0809; that for TGTCACAA was 0.0769; that for ACCTGAAT was 0.0786. As to CCCAGGGC, the binding signal (normalized occupancy) was 0.0664. The value for CCACCTAA was 0.0735; that for CACCAAGG was 0.0757; that for CGAAGTAA was 0.0697. The value for ATTCTTAA was 0.075; that for GCCAGAAC was 0.0772; that for AACCTAAA was 0.0677.

Turning to TATCTAGA, the binding signal (normalized occupancy) was determined as 0.0728. The value for TCTTTTCA was 0.0755; that for CGAGAAGA was 0.0702; that for CATGTACA was 0.0958.

With CGTATTAG, the binding signal (normalized occupancy) was determined as 0.0769. AGGTTGAC: the binding signal (normalized occupancy) came to 0.0776. As for CGGTGAGA, the binding signal (normalized occupancy) was found to be 0.0759. For the sequence GACTTCCA, the binding signal (normalized occupancy) is 0.0741. Turning to TCGATAAA, the binding signal (normalized occupancy) was 0.0738. For the sequence GCCCTTCA, the binding signal (normalized occupancy) was determined as 0.0726. The value for GATCTTTA was 0.0747; that for CCAGGTCC was 0.066; that for GTGTTTAA was 0.0772. The value for GATTAATC was 0.0681. The value for AGCCGCTA was 0.0678; that for CAAGGTCA was 0.0762. Consider GGAGCCAA, for which the binding signal (normalized occupancy) came out at 0.0767. The value for AGTTGGAG was 0.0724.

With TCCGGTAA, the binding signal (normalized occupancy) stood at 0.0716. The value for ATACACCC was 0.0857; that for CTCTATGC was 0.0797. Turning to GCCTTAAC, the binding signal (normalized occupancy) was 0.075. The value for CCCAGCCC was 0.0749. Regarding GAGCGGAC, the binding signal (normalized occupancy) amounted to 0.0706. For the sequence AGTCCAAA, the binding signal (normalized occupancy) is 0.0702. Regarding GTATCGAC, the binding signal (normalized occupancy) was determined as 0.0744. The value for CGTCAACA was 0.0779. The value for ACTCAGCG was 0.0701.

Take ACTTGTAG: the binding signal (normalized occupancy) stood at 0.073. The value for GGACTCGA was 0.0744; that for AACGGTGC was 0.0733; that for CGCACGTC was 0.0785. For CATTAGGA, the binding signal (normalized occupancy) is 0.0775.

Consider TCTAAGAA, for which the binding signal (normalized occupancy) amounted to 0.075. The value for AGATGAGA was 0.081; that for AACACCTA was 0.0789; that for ATCCGCAT was 0.0856. ATGTACGG: the binding signal (normalized occupancy) was determined as 0.0785. As for TCTTACAA, the binding signal (normalized occupancy) is 0.0765. In the case of ATCGCTTC, the binding signal (normalized occupancy) was 0.0694. GTTTCAAA: the binding signal (normalized occupancy) is 0.076. In the case of ACTACCGG, the binding signal (normalized occupancy) was found to be 0.0755.

Turning to AGGTCCCC, the binding signal (normalized occupancy) was 0.0701. The value for CTCGGAAA was 0.067; that for CCGCAAAA was 0.0702. The value for ACGACTAG was 0.0769; that for AAATAGCA was 0.0843; that for ATTACCAG was 0.0713. The value for TGATTGCA was 0.0824. As for GTTCCTTA, the binding signal (normalized occupancy) is 0.0705. For GCCATCAA, the binding signal (normalized occupancy) was 0.0778. Consider GTAGGAAA, for which the binding signal (normalized occupancy) worked out at 0.0761.

As to CGCGAATC, the binding signal (normalized occupancy) was 0.0735. The value for GGCAGAGA was 0.0664; that for AGGATTCG was 0.0775; that for CTCTGCGA was 0.0676.

With CATAGCCG, the binding signal (normalized occupancy) was 0.073. On to TGACACAA, for which the binding signal (normalized occupancy) stood at 0.0798. The value for ATCAAAAC was 0.0742; that for CCCTGTGA was 0.0807. The value for ACAGGAAG was 0.0715.

Take AGAGTGAG: the binding signal (normalized occupancy) is 0.0776.

For GTACACAA, the binding signal (normalized occupancy) was 0.0805. Consider AATTACAA, for which the binding signal (normalized occupancy) was 0.0816. The value for ATGACTAG was 0.0755. Regarding AACCGTTA, the binding signal (normalized occupancy) amounted to 0.0771. The value for CGCAGTTC was 0.0712. In the case of CGGCGCAA, the binding signal (normalized occupancy) was 0.0711. In the case of GGCGGCCA, the binding signal (normalized occupancy) is 0.075.

Consider GTGTTTTA, for which the binding signal (normalized occupancy) came out at 0.0758. As for ATTAACAC, the binding signal (normalized occupancy) was 0.0839. Take ATACAGAA: the binding signal (normalized occupancy) worked out at 0.0789. With CAAAATAA, the binding signal (normalized occupancy) was found to be 0.0766.

The record behind these values is publication PMC4242493.
